Among the data in patent publication US20170266269A1, “METHODS OF IDENTIFYING ANTIGENS FOR VACCINES” (UNIVERSITY OF WASHINGTON THROUGH ITS CENTER FOR …, priority 2014, published 2017) are IFNγ response and IL-10 response values, retold here.

Test [1] relates to human peripheral blood mononuclear cells (PBMC). Nature of the test: IFNγ ELISPOT of human PBMC with epitope peptides. Type of test: cell-based. The settings on record: CD105 and HIF1α peptides. The text has this:
(§1) A plurality of immunological assays may be used with the methods or processes described herein to test at least one peptides of putative epitopes or nucleic acids encoding peptides of putative epitopes to determine if the peptide of the putative epitope elicits an immune response, often the sub-type of the immune response may be determined, often the immunologic assay may be an ELISPOT assay, an ELISA assay, a multiplex assay or the like. For example, a suitable immunologic assay may include performing an ELISPOT assay using cells derived from donors. […] The amount of at least one cytokine production in cells following administration of the peptides of putative epitopes may be determined by the ELISPOT assay. […]
(§2) […] peptides, predicted to bind promiscuously to human MHCII, were selected using web-based algorithms according to the methods described herein. Peripheral blood mononuclear cells (PBMC) from 20 female breast cancer patients were cryopreserved and evaluated by ELISPOT for antigen specific IFNγ or IL-10 secretion, according to our published methods. […] Data is reported as the mean number of spots for each experimental antigen minus the mean number of spots detected in no antigen control wells (corrected spots per well: CSPW). […]

For test [2] the test system is unchanged. Put plainly: IL-10 ELISPOT of human PBMC with epitope peptides. Type of test: cell-based. The settings on record: CD105 and HIF1α peptides.
Source text: as §1, §2

Take “LKALDGFVMVLTDDGDMIYISDNVN [HIF1α p 93-117]”: the IFNγ response result in test [1] is recorded as “strong”. Besides, the IL-10 response entry in test [2] is reported as “no or low”.
